# Paper PMC12135187, “A role for pH dynamics regulating transcription factor DNA-binding selectivity”
# This is one part of the list.
# Biological target: T1, FOXC2 DBD WT (UniProt Q99958 72-172)
# T1 sequence: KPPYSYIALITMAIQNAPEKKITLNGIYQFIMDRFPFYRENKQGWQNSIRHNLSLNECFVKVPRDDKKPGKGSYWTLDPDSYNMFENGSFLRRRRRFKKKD
# Test: SELEX-seq (GST pull-down, four rounds, 16-nt random library); pH 7.0; 20 mM HEPES, 140 mM KCl, 0.05 mM TCEP-HCl, pH 7.0, room temperature, 30 min; 2.5 uM GST-FOXC2 DBD, 0.25 uM DNA library; high values mean tight binding
# Settings: protein: recombinant; tags: N-terminal GST (pGEX-6P-2); dsDNA, one strand shown
# Procedure, shortened: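 GST-tagged FOXC2 DNA-binding domain (E. coli-expressed, glutathione-purified) was incubated with a DNA library carrying a 16 bp randomized region, at 0.25 μM DNA and 2.5 μM protein, for 30 min at RT in 20 mM HEPES, 140 mM KCl, 0.05 mM TCEP–HCl, pH 7. Complexes were captured on glutathione Sepharose beads, washed, heat-eluted and PCR-amplified over four rounds. Initial and selected libraries were Illumina MiniSeq sequenced. Relative enrichment came from the Bioconductor SELEX R package.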
row,Sequence,binding signal
1,AGCTCT,0.398 relative enrichment
2,GTGATA,0.39 relative enrichment
3,CCCTTG,0.444 relative enrichment
4,CGCTAA,0.329 relative enrichment
5,AATTGA,0.237 relative enrichment
6,TCTACT,0.56 relative enrichment
7,CATACC,0.469 relative enrichment
8,GAAACA,0.347 relative enrichment
9,TGGCAA,0.302 relative enrichment
10,AGAACT,0.394 relative enrichment
11,TTCTAC,0.528 relative enrichment
12,CATCGC,0.711 relative enrichment
13,TTCATC,0.605 relative enrichment
14,ACTTCA,0.453 relative enrichment
15,ATCATG,0.422 relative enrichment
16,TCATAA,0.453 relative enrichment
17,ATGTAC,0.329 relative enrichment
18,ATAAAT,0.595 relative enrichment
19,ATTCCC,0.519 relative enrichment
20,CAAATG,0.327 relative enrichment
21,GCCTTT,0.309 relative enrichment
22,CATTAC,0.341 relative enrichment
23,CACACA,0.275 relative enrichment
24,CATTCA,0.433 relative enrichment
25,TAATGA,0.31 relative enrichment

row,Sequence,binding signal
1,ACACGA,0.377 relative enrichment
2,GAATTA,0.339 relative enrichment
3,ATATAT,0.326 relative enrichment
4,TCCAAT,0.319 relative enrichment
5,TCTCTG,0.51 relative enrichment
6,TTTCAG,0.354 relative enrichment
7,TGCTAA,0.278 relative enrichment
8,ACACGT,0.335 relative enrichment
9,CCGTAT,0.463 relative enrichment
10,CACTAC,0.531 relative enrichment
11,ATCTCA,0.406 relative enrichment
12,AATCCA,0.347 relative enrichment
13,GCACTA,0.481 relative enrichment
14,AAGGTA,0.429 relative enrichment
15,ACTATA,0.325 relative enrichment
16,TGTCAA,0.457 relative enrichment
17,AGCTCA,0.3 relative enrichment
18,TACACC,0.418 relative enrichment
19,CTTCAT,0.554 relative enrichment
20,ATCCCA,0.419 relative enrichment
21,AACGGT,0.444 relative enrichment
22,TGAAAA,0.309 relative enrichment
23,GAAAAA,0.304 relative enrichment
24,CAAACA,0.57 relative enrichment
25,ATTGTC,0.33 relative enrichment

row,Sequence,binding signal
1,ACCAGT,0.591 relative enrichment
2,CCCTGT,0.366 relative enrichment
3,ACTAAA,0.284 relative enrichment
4,CTCGTA,0.59 relative enrichment
5,CATCCA,0.528 relative enrichment
6,ACTGTG,0.322 relative enrichment
7,CAATGG,0.433 relative enrichment
8,AAGCAT,0.54 relative enrichment
9,AAACTC,0.421 relative enrichment
10,AAACCG,0.336 relative enrichment
11,AAACTG,0.284 relative enrichment
12,ACCATG,0.559 relative enrichment
13,ATGCAC,0.484 relative enrichment
14,GCATCA,0.615 relative enrichment
15,AAGATA,0.3 relative enrichment
16,CAGATG,0.493 relative enrichment
17,ATTTAC,0.56 relative enrichment
18,AATCCT,0.389 relative enrichment
19,ACCTCT,0.569 relative enrichment
20,AACTCA,0.249 relative enrichment
21,CACATC,0.388 relative enrichment
22,AATGAT,0.314 relative enrichment
23,AATCTA,0.278 relative enrichment
24,ACTTGC,0.489 relative enrichment
25,AACAGG,0.325 relative enrichment

row,Sequence,binding signal
1,ACAAGT,0.28 relative enrichment
2,AAAAGC,0.326 relative enrichment
3,AAAGTC,0.388 relative enrichment
4,CAATAC,0.266 relative enrichment
5,GTTCAA,0.292 relative enrichment
6,TCCATT,0.339 relative enrichment
7,CCGAAT,0.621 relative enrichment
8,TACTCT,0.496 relative enrichment
9,GATAAA,0.326 relative enrichment
10,CAAGTC,0.459 relative enrichment
11,CACCAC,0.647 relative enrichment
12,AATAAT,0.309 relative enrichment
13,ATAACA,0.316 relative enrichment
14,CCTAAA,0.34 relative enrichment
15,ACAATC,0.437 relative enrichment
16,ATAATG,0.3 relative enrichment
17,CGCATA,0.349 relative enrichment
18,GAATCT,0.615 relative enrichment
19,CTTTTA,0.288 relative enrichment
20,AATTAC,0.323 relative enrichment
21,AAAAAA,0.226 relative enrichment
22,ACTGCT,0.412 relative enrichment
23,CACAGC,0.323 relative enrichment
24,CACTCA,0.422 relative enrichment
25,TTCCAC,0.502 relative enrichment

row,Sequence,binding signal
1,ACACTC,0.42 relative enrichment
2,AGTTTC,0.336 relative enrichment
3,AGCCAA,0.304 relative enrichment
4,ACCTAT,0.392 relative enrichment
5,ATAGAT,0.461 relative enrichment
6,CACACT,0.351 relative enrichment
7,CATTTC,0.414 relative enrichment
8,TATGCA,0.394 relative enrichment
9,AGTGTA,0.391 relative enrichment
10,AGATCA,0.547 relative enrichment
11,CTTCGT,0.674 relative enrichment
12,TCTTCT,0.66 relative enrichment
13,AGGTAT,0.39 relative enrichment
14,TAGCTA,0.422 relative enrichment
15,TCGAAA,0.41 relative enrichment
16,CTCTTC,0.799 relative enrichment
17,CGCTTA,0.418 relative enrichment
18,TTTCAC,0.296 relative enrichment
19,AAAGTG,0.343 relative enrichment
20,ACTTCC,0.677 relative enrichment
21,CATCGT,0.553 relative enrichment
22,CTTGTA,0.305 relative enrichment
23,ACCAAC,0.436 relative enrichment
24,TACGAA,0.468 relative enrichment
25,GAATAA,0.462 relative enrichment

row,Sequence,binding signal
1,AACCAT,0.316 relative enrichment
2,TAAATA,0.726 relative enrichment
3,TAATTA,0.207 relative enrichment
4,TGTTAA,0.314 relative enrichment
5,TAACTC,0.337 relative enrichment
6,CCATTA,0.286 relative enrichment
7,CCTATC,0.464 relative enrichment
8,GGCTTA,0.426 relative enrichment
9,CAGACT,0.612 relative enrichment
10,GACATA,0.269 relative enrichment
11,AGAAAC,0.36 relative enrichment
12,ACACGC,0.52 relative enrichment
13,AATATC,0.251 relative enrichment
14,ATATTA,0.266 relative enrichment
15,AAGCAG,0.486 relative enrichment
16,AACGAC,0.316 relative enrichment
17,AATCAT,0.403 relative enrichment
18,TTTCCC,0.38 relative enrichment
19,TAATCA,0.555 relative enrichment
20,TGTCTG,0.336 relative enrichment
21,AAATCG,0.285 relative enrichment
22,TTAGAA,0.333 relative enrichment
23,GAGTAA,0.439 relative enrichment
24,AACTTA,0.218 relative enrichment
25,CAATCG,0.373 relative enrichment

row,Sequence,binding signal
1,ACATCA,0.347 relative enrichment
2,ATTCTG,0.359 relative enrichment
3,CAAGAC,0.425 relative enrichment
4,CTCCTT,0.419 relative enrichment
5,GCCTAT,0.388 relative enrichment
6,ACACCT,0.397 relative enrichment
7,TACTTC,0.678 relative enrichment
8,ACGATA,0.322 relative enrichment
9,ACGTAT,0.307 relative enrichment
10,GTAATA,0.366 relative enrichment
11,ACGCAT,0.439 relative enrichment
12,ATGTCA,0.303 relative enrichment
13,CATAAC,0.226 relative enrichment
14,CCACTG,0.649 relative enrichment
15,ACACCA,0.401 relative enrichment
16,AACCTT,0.295 relative enrichment
17,TGTAAA,0.331 relative enrichment
18,TTGCTC,0.362 relative enrichment
19,AAACAC,0.411 relative enrichment
20,AACAAT,0.374 relative enrichment
21,CGAATA,0.455 relative enrichment
22,AACAAG,0.445 relative enrichment
23,CAAAAG,0.294 relative enrichment
24,CCCAAT,0.348 relative enrichment
25,AGTTAC,0.363 relative enrichment

row,Sequence,binding signal
1,AACAAA,0.337 relative enrichment
2,TACCTA,0.442 relative enrichment
3,ATCTGA,0.44 relative enrichment
4,CAATGA,0.356 relative enrichment
5,GAAAAC,0.323 relative enrichment
6,GATATC,0.45 relative enrichment
7,ATACCG,0.505 relative enrichment
8,GAAATA,0.451 relative enrichment
9,TTTCCG,0.394 relative enrichment
10,AACCCT,0.358 relative enrichment
11,ATTGAG,0.341 relative enrichment
12,CTTAAC,0.232 relative enrichment
13,GCCAAT,0.341 relative enrichment
14,TAGTAA,0.461 relative enrichment
15,GATCAA,0.421 relative enrichment
16,ACAGGC,0.353 relative enrichment
17,TACCCA,0.526 relative enrichment
18,CACGTA,0.469 relative enrichment
19,CACTTA,0.321 relative enrichment
20,GTGTTA,0.281 relative enrichment
21,CTTGTC,0.297 relative enrichment
22,ACTTAC,0.359 relative enrichment
